Common to all, as to experiment: Primary Screen for Target Class Profiling of Small Molecule Inhibitors of Methyltransferases
Assay [1] has as its target Glycine N-methyltransferase (Homo sapiens) (UniProt Q14749). The conditions noted are these: purified enzyme, MTase-Glo SAH luminescence; measured here: GNMT inhibition; at 40 µM; stronger effect = lower value. In a few lines: (§1)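 Each enzyme was reacted with SAM and its substrate, with compounds tested once at 40 uM; SAH formed was read by MTase-Glo luminescence.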
The target in assay [2] is Guanidinoacetate N-methyltransferase (Homo sapiens) (UniProt Q14353). The note with it: purified enzyme, MTase-Glo SAH luminescence; measured here: GAMT inhibition; at 40 µM; stronger effect = lower value. In a few lines: as §1
The target of assay [3] is Histamine N-methyltransferase (Homo sapiens) (UniProt P50135). The conditions noted are these: purified enzyme, MTase-Glo SAH luminescence; measured here: HNMT inhibition; at 40 µM; stronger effect = lower value. In a few lines: as §1
Assay [4] deals with Nicotinamide N-methyltransferase (Homo sapiens) (UniProt P40261). The note with it: purified enzyme, MTase-Glo SAH luminescence; measured here: NNMT inhibition; at 40 µM; stronger effect = lower value. In a few lines: as §1
The target of assay [5] is Phenylethanolamine N-methyltransferase (Homo sapiens) (UniProt P11086). The conditions noted are these: purified enzyme, MTase-Glo SAH luminescence; measured here: PNMT inhibition; at 40 µM; stronger effect = lower value. In a few lines: as §1

Some of the results follow. Shown are side measurements of this screen, not its main read-out; they come without a call.

Activity change, negative = inhibition data for 29 compounds are collected here from PubChem BioAssay AID1745853 (National Center for Advancing Translational Sciences (NCATS), 2022).
On the % scale 0 is the no-effect control and ±100 the full control effect.

On to `O=S(=O)(Nc1cccc(F)c1)c1cccc(-c2nc(-c3ccccc3)no2)c1`, for which the activity change, negative = inhibition in assay [1] is 4.21%; in assay [2], 0%; in assay [3], -1.09%; in assay [4], -11.2%; in assay [5] it was 2.84%.
In the same order, the values of `CCNc1ncc(C(=O)N[C@H](c2cnn(C)c2)C2CC(O)C2)cn1` (stereo not given in full) are 0.453%, 0.063%, 2.03%, 2.24% and 1.06%.
For `O=C(NCc1ccc(Cl)nc1)c1cn2c(n1)CN(C(=O)c1cccnc1)CC2` the same measures were -7.79%, -4.42%, -1.18%, -13.1% and -7.09%.
As for `CCc1cccc2c(C(CC(=O)N3CCCC3)c3cccc([N+](=O)[O-])c3)c[nH]c12` (stereo not given), the activity change, negative = inhibition in assay [1] is -5.33%; in assay [2], -3.06%; in assay [3] it was -3.27%; in assay [4], -13.3%; in assay [5], -1.52%.
In the same order, the values of `COc1cccc(N2C(=O)NC(=NC3CCCC3)C23CCN([S+](=O)([O-])c2cccs2)C3)c1` (stereo not given) are -4.04%, -5.14%, -1.46%, -9.68% and -4.78%.
As to `Cn1cc(CCNC(=O)c2ccc3oc(-c4cccc(F)c4)nc3c2)cn1`, the activity change, negative = inhibition was -1.17% in assay [1]; -1.35% in assay [2]; 2.66% in assay [3]; -3.46% in assay [4]; -0.883% in assay [5].
In the same order, the values of `CC(C)Cn1c(=O)c2ccc(C(=O)NC3CCCCC3)cc2n2c(=O)n(CC(=O)NC(C)(C)C)nc12` are 5.42%, 1.22%, 10.5%, 6.75% and 7.71%.
In the same order, the values of `Cc1ccc(Cl)cc1N1CCN(CCNC(=O)CCc2nnc3n(C)c(=O)c4ccccc4n23)CC1` are -9.94%, 1.24%, -13.6%, -9.06% and -3.8%.
Take `COc1cccc(-c2ccc([C@@H](Oc3cc(-c4ccc(C[C@H](N)C(=O)O)cc4)nc(N)n3)C(F)(F)F)cc2)c1`: the activity change, negative = inhibition in assay [1] is -11.9%; in assay [2], 22.5%; in assay [3] it was 9.73%; in assay [4], -3.84%; in assay [5], 9.32%.
For the compound `CC(C)c1nc2c(NC(=O)Nc3cccc(Cl)c3)cccn2n1`, the activity change, negative = inhibition in assay [1] was -9.92%; in assay [2], -4.18%; in assay [3], -1.89%; in assay [4] it was -5.14%; in assay [5], -22.3%.
Regarding `Cc1ccc(CNC(=O)c2cc3n(n2)CC(C)(C(=O)NC2CCCCCC2)N(C)C3=O)cc1` (stereo not given), the activity change, negative = inhibition worked out at 1.83% in assay [1]; 0.31% in assay [2]; 8.7% in assay [3]; 3.01% in assay [4]; 4.79% in assay [5].
As for `CC(C)n1c(=O)c2ccc(C(=O)NC3CCCCC3)cc2n2c(=O)n(CC(=O)NCc3ccccc3)nc12`, the activity change, negative = inhibition in assay [1] is -4.64%; in assay [2], -3.37%; in assay [3], -4.93%; in assay [4] it was -8.93%; in assay [5], -6.26%.
Regarding `C/C=C/c1ccc2oc(-c3ccc(O)c(OC)c3)c(C)c2c1`, the activity change, negative = inhibition was -1.02% in assay [1]; -0.009% in assay [2]; 1.56% in assay [3]; -15.4% in assay [4]; -11.3% in assay [5].
In the same order, the values of `O=C1c2c(O[C@@H]3O[C@H](CO)[C@@H](O)[C@H](O)[C@H]3O)cc(O)cc2OC1(O)Cc1ccc(O)cc1` (stereo not given in full) are 6.66%, 6.43%, 13.4%, -4.97% and 5.66%.
For `COc1ccc(-c2nc3c(c(=O)[nH]2)CCN(C(=O)CSc2ccccc2)C3)cc1` the same measures were -7.79%, -0.062%, -1.95%, -3.75% and 14.8%.
Regarding `O=C(NCC1CC1)C1CN(Cc2ccccc2)C(=O)N1` (stereo not given), the activity change, negative = inhibition was -3.67% in assay [1]; -5.32% in assay [2]; -0.835% in assay [3]; -6.73% in assay [4]; -15.4% in assay [5].
In the same order, the values of `CC(C)CCNC(=O)C1(C)Cn2c(ccc2-c2ccco2)C(=O)N1CC(C)c1ccccc1` (stereo not given) are -4.35%, 6.17%, -0.415%, -4.98% and 1.22%.
For `CC(C)c1c(O)ccc2c1CC[C@H]1C(C)(C)CCC[C@]21C`, the activity change, negative = inhibition in assay [1] was -9.14%; in assay [2], -9.48%; in assay [3], 1.79%; in assay [4], -27.7%; in assay [5], -3.5%.
For the compound `COc1cc(C(O)CO)ccc1OS(=O)(=O)O` (stereo not given), the activity change, negative = inhibition in assay [1] is -1.8%; in assay [2], 4.99%; in assay [3], -0.926%; in assay [4], -2.59%; in assay [5], 9.53%.
As to `c1cc(-c2cnn3cc(-c4ccc(N5CCNCC5)cc4)cnc23)c2cccnc2c1`, the activity change, negative = inhibition in assay [1] is -0.827%; in assay [2] it was 9.15%; in assay [3], 4.08%; in assay [4], -14.9%; in assay [5] it was 2.53%.
For `CC(C)NC(=O)N1CC2ON=C(C(=O)N3CCOCC3)C2C1` (stereo not given) the same measures were -0.529%, -0.29%, 2.04%, -2.77% and -1.63%.
For `CN1CCN(c2nc3c(c(=O)[nH]2)CCN(Cc2cn[nH]c2-c2ccc(F)cc2)CC3)CC1` the same measures were -3.95%, -0.016%, -8.42%, -0.51% and 6.18%.
For `CC(C)OCCCNC(=O)CCc1nnc2n(Cc3ccccc3)c(=O)c3ccccc3n12` the same measures were -8.01%, 5.09%, 2.52%, 6.08% and -1.61%.
Turning to `CC(C)CCNC(=O)C1(C)Cn2c(cc3ccccc32)C(=O)N1Cc1ccco1` (stereo not given), the activity change, negative = inhibition is 8.46% in assay [1]; 0% in assay [2]; 12% in assay [3]; 12.6% in assay [4]; 3.85% in assay [5].
For `CCOCCCN1C(=O)c2c(NC(C)=O)c3cc(F)ccc3n2CC1(C)C(=O)NC1CCCCC1` (stereo not given) the same measures were -9.57%, -0.279%, -4.93%, -4.67% and -3.91%.
With `O=C(O)c1ccnc2cc(-c3nc4ccccc4n3CCN3CCCCC3)sc12`, the activity change, negative = inhibition in assay [1] is -10.6%; in assay [2] it was -5.77%; in assay [3], -0.702%; in assay [4], -26.2%; in assay [5], -1%.
Turning to `CC1(CNC(=O)c2n[nH]c3ccccc23)CCOCC1`, the activity change, negative = inhibition in assay [1] was -2.54%; in assay [2] it was -3.84%; in assay [3] it was -2.73%; in assay [4], -6.42%; in assay [5], -3.72%.
For `CN1[C@@H]2CC[C@H]1CC(OC(=O)c1c[nH]c3ccccc13)C2` (stereo not given in full) the same measures were 4.22%, 10.5%, 0.847%, -7.68% and 4.78%.
For `Cc1ccc(CN2C[C@]34C=C[C@H](O3)C(C(=O)N(C)Cc3ccsc3)C4C2=O)cc1C` (stereo not given in full) the same measures were -0.883%, -0.486%, 1.9%, -1.45% and -11.2%.
